Data from PubChem BioAssay (NCI).
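Growth conditions: 96-well plates. Treatment: test compound, 48 hours, 5 concentrations. Analysis: linear interpolation between bracketing concentrations; unreached endpoints set to highest concentration. At the GI50, growth is halved. At the TGI there is no net growth.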

test system: NCI-H322M lung; assay: NCI tumour cell line growth inhibition, 48 h

Structure (SMILES) | GI50 | TGI
CCN(CC)CCOc1ccc(C(=C(C)Cc2ccc(OC)cc2)c2ccc(OCCN(CC)CC)cc2)cc1 | 4.66 µM | 12.9 µM
Cc1ccc(NC2=C(Cl)C(=O)c3nc(C)ccc3C2=O)c(C)c1 | 2.86 µM | 10.1 µM
Cn1ccnc1C(=O)/C=C/c1ccc(CNC(=O)c2ccc(F)cc2)cc1 | 2.88 µM | 6.77 µM
